# Reference: PubChem BioAssay AID485294 (National Center for Advancing Translational Sciences (NCATS), 2010)
# About 150 (0.041%) of roughly 370,000 compounds were called active. Inconclusive results, whose numbers are uncertain, are shown with a selection of clear calls. The call rests on the fitted dose curve; in most records, active means well fitted inhibition curve with a large enough effect; inconclusive means small, poorly fitted or top-dose-only effect; inactive means flat fitted curve, though single readings scatter. Potencies of inconclusive entries are left out as doubtful fits.
# Biological target: Beta-lactamase (Escherichia coli (strain K12)) (UniProt P00811)
# Test: qHTS Inhibitors of AmpC Beta-Lactamase (assay with detergent); further: nearly all actives have a fitted effect of over 25% in size;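 on activity change, negative = inhibition: 0% = no-compound wells and -100% = no-enzyme wells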
# Conditions: AmpC hydrolysis of nitrocefin, absorbance 480 nm, 0.01% Triton; activity change, negative = inhibition: at 114 µM (top of the series)
# In short: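 20 mM phosphate pH 7.0 + 0.01% (detergent screen) or 0.0001% Triton X-100; 5.3 nM AmpC reagent; cpd preinc 15 min RT; nitrocefin (800 uM stock) to start; A480 q20 s × 4 min; Activity was normalised to no-enzyme and no-compound control wells.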
# Potency means the concentration at half of the fitted maximal effect; tags describe the fitted curve by direction and shape.
# UniProt P00811, sequence (P00811 whole entry, looked up): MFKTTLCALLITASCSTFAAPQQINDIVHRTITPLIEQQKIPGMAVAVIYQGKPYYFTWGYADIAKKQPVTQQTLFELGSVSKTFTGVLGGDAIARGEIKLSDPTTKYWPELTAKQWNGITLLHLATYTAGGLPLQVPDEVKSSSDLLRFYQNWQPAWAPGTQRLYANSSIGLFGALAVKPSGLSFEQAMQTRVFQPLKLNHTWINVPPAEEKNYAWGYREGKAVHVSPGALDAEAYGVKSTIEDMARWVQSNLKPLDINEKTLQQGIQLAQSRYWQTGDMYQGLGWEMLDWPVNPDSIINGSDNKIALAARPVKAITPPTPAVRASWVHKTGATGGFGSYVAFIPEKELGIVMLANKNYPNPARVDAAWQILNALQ
SMILES,Potency,"activity change, negative = inhibition"
COc1cccc(Cn2cnc3c(NS(=O)(=O)c4ccc(Cl)cc4Cl)c(C)c(C)cc32)c1,"inconclusive [inhibitor, partial curve, poor fit]",–
Cn1cccc1Cc1nnc(SCC(=O)NC2CCCCC2)n1CCc1ccccc1,"inconclusive [inhibitor, single point]",–
COc1ccccc1NS(=O)(=O)c1ccc(O)cc1,"inconclusive [inhibitor, full curve]",–
O=C(NCC1COCCO1)c1ccc2nc(Cc3cccc(Cl)c3)oc2c1 (stereo not drawn),–,inactive: 3.24%
Cc1c(NC(=O)C(C)N2C(=O)C3C4C=CC(C4)C3C2=O)c(=O)n(-c2ccccc2)n1C (stereo not drawn),"inconclusive [inhibitor, full curve, poor fit]",–
CCOCCCNC(=O)c1cccc(NC(=O)C2=C(C)OCCS2)c1,"inconclusive [inhibitor, full curve, poor fit]",–
O=C1C(=O)c2ccccc2C(O)=C1CCCCl,–,inactive: -5.29%
Cc1cc2oc(=O)cc(CN3CCN(S(=O)(=O)c4cccs4)CC3)c2cc1C,"inconclusive [inhibitor, full curve]",–
CCOc1ccc(NC(=NCc2ccc3c(c2)OCO3)SC2CC(=O)N(c3ccc(C(=O)O)cc3)C2=O)cc1 (stereo not drawn),–,inactive: 0.877%
CCOc1ccc(CCNC(=O)COC(=O)CNC(=O)c2ccc(Br)o2)cc1OCC,"inconclusive [inhibitor, full curve]",–
Cc1cc(N2CCCCC2)c(F)cc1[N+](=O)[O-],"inconclusive [inhibitor, full curve, poor fit]",–
COc1ccc(CN2CC[C@H]3C=CCc4cccc(c43)C2)cc1,–,inactive: 2.03%
COc1ccc(Cl)cc1C(=O)N(Cc1nc(-c2cccc(C)c2)no1)C(C)C,"inconclusive [inhibitor, full curve, poor fit]",–
O=C1CC(c2ccccc2)CC(O)=C1C=NCCN1CCN(C(=O)Nc2ccccc2)CC1 (stereo not drawn),"inconclusive [inhibitor, full curve, poor fit]",–
CCN(CC)C(=O)Oc1ccc(NC(=O)N2CCOCC2)cc1,"inconclusive [inhibitor, partial curve, poor fit]",–
CCC(=O)Nc1ccc(C(=O)NCCCn2ccnc2)cc1,–,inactive: -1.24%
OCC[C@H]1C[C@@H](O)[C@H](O)[C@]2(OCCCc3ccccc32)O1,"inconclusive [inhibitor, full curve, poor fit]",–
O=C(NC1C2CC3CC(C2)CC1C3)c1ccc2c(c1)OCO2 (stereo not drawn),"inconclusive [inhibitor, partial curve, poor fit]",–
C/C(CC(=O)Nc1cc(C)cc(C)c1)=N\NC(=O)c1ccccn1,"inconclusive [inhibitor, partial curve, poor fit]",–
CCSc1nnc(NC(=O)c2c(-c3ccccc3Cl)noc2C)s1,"inconclusive [inhibitor, partial curve, poor fit]",–
Cc1ccc(Cn2cnc3c(nnn3Cc3ccc(Cl)cc3)c2=O)cc1,"inconclusive [inhibitor, full curve, poor fit]",–
CCN(CC)c1ccc(CC(=O)NC(C)Cc2ccccc2)cc1 (stereo not drawn),"inconclusive [inhibitor, partial curve, poor fit]",–

SMILES,Potency,"activity change, negative = inhibition"
Cc1ccc(NC(=O)Cn2c(O)c(N=NC(=O)c3cc4ccccc4cc3O)c3ccccc32)cc1,"inconclusive [inhibitor, full curve, poor fit]",–
CC(=O)c1cccc(OCc2cc(C(=O)N(C)CCc3cnn(C)c3)no2)c1,–,inactive: -0.762%
CCc1ccc(NC(=O)CN(C)S(=O)(=O)c2ccc3c(c2)c(=O)n(C)c(=O)n3C)cc1,"inconclusive [inhibitor, partial curve]",–
O=C1N/C(=N\c2ccccn2)SC1Cc1ccc(Cl)cc1 (stereo not drawn),"inconclusive [inhibitor, full curve, poor fit]",–
COCCCNC1=C(Cl)C(=O)c2ccccc2C1=O,–,inactive: -0.572%
CC(C)c1nnc(NC(=O)CCC(=O)NCC2CCCO2)s1 (stereo not drawn),"inconclusive [inhibitor, full curve, poor fit]",–
Cc1nc2ccc(NC(=O)c3ccc(Cl)c(NC(=O)c4cccs4)c3)cc2s1,–,inactive: -8.76%
CC(C)Sc1cc(N2CCOCC2)nc(-c2ccccc2)n1,–,inactive: 0.374%
Cc1nn(Cc2cccc(C(=O)Nc3ccn(Cc4c(F)c(F)cc(F)c4F)n3)c2)c(C)c1[N+](=O)[O-],–,inactive: -14.4%
C[N+](C)(C)CCCCCCCCCC[N+](C)(C)C,–,inactive: -12.5%
COCCn1c(=NC(=O)CSC(C)=O)sc2cc(OC)ccc21,–,inactive: -14.7%
CC(=O)Nc1ccc(NC(=O)c2cc(-n3cnnc3)ccc2Cl)cc1,–,inactive: -0.414%
Cc1cc(C)c(S(=O)(=O)Nc2ccc(OCC(=O)O)cc2)c(C)c1,"inconclusive [inhibitor, full curve]",–
CCS(=O)(=O)Nc1cc(C(=O)O)ccc1C,"inconclusive [inhibitor, single point]",–
CCNC(=O)c1ccc(NS(=O)(=O)c2ccccc2)cc1,"inconclusive [inhibitor, partial curve]",–
CCN1CCN(c2nc3c(C)cccn3c(=O)c2/C=C(\C#N)S(=O)(=O)c2ccccc2)CC1,"inconclusive [inhibitor, partial curve]",–
CC1CN(C(=O)Nc2ccc(C(=O)NCc3ccccc3F)cc2)c2ccccc2S1 (stereo not drawn),–,inactive: 1.77%
COC(=O)C1=C(C)N(C)C(C)=C(C(=O)OC)C1c1ccsc1,"inconclusive [inhibitor, partial curve, poor fit]",–
COCCN(C(=O)COC(=O)CSc1ccc(Cl)cc1)c1c(N)n(Cc2ccccc2)c(=O)[nH]c1=O,"inconclusive [inhibitor, full curve]",–
CN(C)CCCNC(=O)c1ccc(-c2ccccc2)cc1,"inconclusive [inhibitor, full curve, poor fit]",–
COCCN=C1N[C@@H](c2cccc(C(F)(F)F)c2)C(C(=O)OC)=C(C)N1Cc1ccccc1,"inconclusive [inhibitor, partial curve, poor fit]",–
